From the BET-seq Pho4 binding data (Le et al. 2018)
Some of the results follow. These are noisy estimates, calculated here from bound and input reads.

What follows are sequences tested against T1, Pho4 (S. cerevisiae) (UniProt P07270) (assay: relative binding free energy (BET-seq); higher = weaker binding). Details: reference: library average.
T1 sequence: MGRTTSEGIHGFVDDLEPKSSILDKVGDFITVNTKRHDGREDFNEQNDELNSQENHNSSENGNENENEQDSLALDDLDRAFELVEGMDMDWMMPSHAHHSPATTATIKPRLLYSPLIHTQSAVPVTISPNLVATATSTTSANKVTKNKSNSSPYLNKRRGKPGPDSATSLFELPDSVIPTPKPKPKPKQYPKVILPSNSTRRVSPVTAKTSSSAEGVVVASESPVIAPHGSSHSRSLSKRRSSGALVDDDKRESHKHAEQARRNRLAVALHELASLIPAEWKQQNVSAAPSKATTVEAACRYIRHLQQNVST

Row | Sequence | relative binding free energy
1 | ATGTGCACGTGAGAAT | 0.23 kcal/mol
2 | TTCTTCACGTGTCGTT | 0.13 kcal/mol
3 | GGCGCCACGTGAGTGT | 0.18 kcal/mol
4 | TTAGGCACGTGATTTG | -0.07 kcal/mol
5 | CATTCCACGTGTTGTT | 0.19 kcal/mol
6 | GCGGGCACGTGCAGTT | 0.06 kcal/mol
7 | TAAGGCACGTGTTTAG | -0.22 kcal/mol
8 | TGGGTCACGTGAACGT | 0.22 kcal/mol
9 | GGTGTCACGTGTGGGC | 0.21 kcal/mol
10 | ATTGCCACGTGGATGG | -0.13 kcal/mol
11 | GTGTACACGTGGGTAA | -0.05 kcal/mol
12 | GGCATCACGTGGATTG | 0.11 kcal/mol
13 | GGTGACACGTGTATTA | 0.17 kcal/mol
14 | AGGATCACGTGGAGGC | 0.12 kcal/mol
15 | TGCACCACGTGGGGTG | -0.29 kcal/mol
16 | GTTTACACGTGGCGCG | 0.05 kcal/mol
17 | GTTATCACGTGTTATA | 0.18 kcal/mol
18 | GTATTCACGTGTTGGT | 0.29 kcal/mol
19 | AATTCCACGTGTGGTG | 0.18 kcal/mol
20 | GTGCACACGTGTGTGA | 0.09 kcal/mol
21 | ATGATCACGTGGAGGA | 0.27 kcal/mol
22 | TATAGCACGTGTGCGT | -0.07 kcal/mol
23 | TTTAGCACGTGGCTGT | -0.16 kcal/mol

Row | Sequence | relative binding free energy
24 | ATATGCACGTGGCGAG | -0.07 kcal/mol
25 | GGTATCACGTGTCGGT | 0.31 kcal/mol
26 | ACAGTCACGTGGGTTA | -0.14 kcal/mol
27 | GGAGGCACGTGATATA | 0.17 kcal/mol
28 | GCAGACACGTGGGGGG | -0.01 kcal/mol
29 | TTGGACACGTGGCCGT | -0.06 kcal/mol
30 | GAGAGCACGTGTATTT | 0 kcal/mol
31 | GAAAGCACGTGCGTGG | -0.02 kcal/mol
32 | ATGATCACGTGCGGGT | -0.07 kcal/mol
33 | TTTAACACGTGAGTAA | 0.21 kcal/mol
34 | ATAGGCACGTGATAAG | -0.06 kcal/mol
35 | ATAGGCACGTGTCGAT | -0.14 kcal/mol
36 | GTTCGCACGTGAAGTG | 0.26 kcal/mol
37 | TGTGACACGTGATAGC | 0.18 kcal/mol
38 | AGGGTCACGTGTCTTG | 0.04 kcal/mol
39 | GTGGGCACGTGACTTA | 0.06 kcal/mol
40 | TTAGTCACGTGGTCTA | 0.05 kcal/mol
41 | CTTGTCACGTGTAAAG | 0.08 kcal/mol
42 | TTCTGCACGTGTGTTC | 0.03 kcal/mol
43 | TGGAACACGTGAGGTG | 0.24 kcal/mol
44 | CTAATCACGTGGGGAG | 0.05 kcal/mol
45 | ATGGGCACGTGTAAAA | 0 kcal/mol
46 | TAGGCCACGTGATAGT | 0.07 kcal/mol

Row | Sequence | relative binding free energy
47 | ATAAGCACGTGGAGTT | -0.09 kcal/mol
48 | GAGTTCACGTGTGCAT | 0.24 kcal/mol
49 | TAGGTCACGTGTACTT | 0.2 kcal/mol
50 | AGGTACACGTGAGGCT | 0.25 kcal/mol
51 | GTCAGCACGTGGATGG | 0 kcal/mol
52 | CATGTCACGTGATCTG | 0.19 kcal/mol
53 | ATGTGCACGTGGTAAA | 0 kcal/mol
54 | TTCTGCACGTGTGAGA | 0.12 kcal/mol
55 | AGGGACACGTGGGATC | -0.03 kcal/mol
56 | AGTTACACGTGAGTTA | 0.2 kcal/mol
57 | TAATTCACGTGATTTA | 0.25 kcal/mol
58 | AGAGCCACGTGTGGTG | 0.01 kcal/mol
59 | TGAATCACGTGTACGG | 0.36 kcal/mol
60 | GAGTGCACGTGGTTTA | -0.12 kcal/mol
61 | GGTGCCACGTGCGAGG | -0.08 kcal/mol
62 | TTTAGCACGTGTTCGG | -0.11 kcal/mol
63 | GTGCTCACGTGTAGGA | 0.13 kcal/mol
64 | ATTATCACGTGATGGA | 0.38 kcal/mol
65 | TATGACACGTGATGGT | 0.03 kcal/mol
66 | AGGGACACGTGATAGT | 0 kcal/mol
67 | AGCGTCACGTGGCGGT | -0.06 kcal/mol
68 | GGGCACACGTGGTTAT | 0.08 kcal/mol
69 | TTATGCACGTGAGTTC | 0.15 kcal/mol

Row | Sequence | relative binding free energy
70 | AGTGTCACGTGGGTTT | -0.02 kcal/mol
71 | GCGGTCACGTGGTGGG | 0.13 kcal/mol
72 | CGCGACACGTGGGAGG | -0.08 kcal/mol
73 | AAGTGCACGTGTGGGA | 0.12 kcal/mol
74 | CTCATCACGTGTGTTG | 0.11 kcal/mol
75 | GTTGACACGTGGGCTA | -0.11 kcal/mol
76 | GTGTGCACGTGCGGCA | -0.08 kcal/mol
77 | TGGGCCACGTGGCGTT | -0.21 kcal/mol
78 | TGTCACACGTGGGAAT | 0.08 kcal/mol
79 | TCTAGCACGTGTTGAG | -0.15 kcal/mol
80 | TTTGGCACGTGTTGGT | 0.07 kcal/mol
81 | AGGGTCACGTGAGATG | 0.28 kcal/mol
82 | GATTTCACGTGGGCTG | 0.31 kcal/mol
83 | TTAAACACGTGGCAGT | 0.06 kcal/mol
84 | AACGGCACGTGGATGG | -0.08 kcal/mol
85 | CTTAGCACGTGTTGGG | 0.02 kcal/mol
86 | TGCGGCACGTGGTAGC | -0.25 kcal/mol
87 | GTTTTCACGTGTAAGG | 0.4 kcal/mol
88 | ATGGGCACGTGGGTCC | -0.26 kcal/mol
89 | ATAGTCACGTGTGGAG | 0.09 kcal/mol
90 | ATTGTCACGTGTGCTG | 0.06 kcal/mol
91 | GGGTCCACGTGGGTTG | -0.06 kcal/mol
92 | TTAAGCACGTGATATG | 0.03 kcal/mol

Row | Sequence | relative binding free energy
93 | GCACGCACGTGGGGGT | -0.17 kcal/mol
94 | GTCGACACGTGTTATG | 0.08 kcal/mol
95 | TAAAACACGTGAGTGT | 0.23 kcal/mol
96 | ATGGTCACGTGCGCTG | -0.01 kcal/mol
97 | ATTATCACGTGGGAAA | 0.21 kcal/mol
98 | TTGTACACGTGATCTT | 0.14 kcal/mol
99 | TGGAACACGTGGGACT | -0.01 kcal/mol
100 | GTGGGCACGTGTCAGT | -0.09 kcal/mol
101 | ATAGCCACGTGGGTTT | -0.18 kcal/mol
102 | TTGGGCACGTGTTTAA | 0.03 kcal/mol
103 | AGGGACACGTGTGGCG | 0.01 kcal/mol
104 | GCGCACACGTGTGGTG | 0.18 kcal/mol
105 | GTTCTCACGTGTGTTT | 0.41 kcal/mol
106 | TCTGTCACGTGTGGTT | 0.2 kcal/mol
107 | GGGTTCACGTGGCCAG | 0.16 kcal/mol
108 | CTTGTCACGTGGTTTT | 0.04 kcal/mol
109 | ACGGTCACGTGTGAGA | 0.27 kcal/mol
110 | TGAGACACGTGGGATA | -0.07 kcal/mol
111 | TGGTTCACGTGCAGGG | 0.33 kcal/mol
112 | TTTTACACGTGATAGC | 0.22 kcal/mol
113 | GTGTCCACGTGTCTGT | 0.01 kcal/mol
114 | GTTTGCACGTGTCAAG | 0.11 kcal/mol
115 | TGCTACACGTGTGGAT | 0.15 kcal/mol
